Data on 1 molecule can be found in US20240190939A1 (SHATTUCK LABS, published 2024).

In one experiment the target is T1, CD47-His.
T1 construct: ELISA capture protein used with both murine and human chimeras
As to the kind of experiment: ELISA: hCD47 His capture, IgG HRP detection. (In an ELISA, binding on a coated surface is turned into a signal by an enzyme label.)

Another experiment concerns the target recombinant human CD47 (human, UniProt Q08722 partial chain, limits assumed). In words: biolayer interferometry (Octet), 'hCD47-his Acro'; concentration not given.
Another experiment concerns the target T2, human LTBR-His (human, UniProt P36941 31-227, limits assumed).
T2 construct: also called hLTBR-His
In words: ELISA: hLTBR-Fc His Tag capture, 'hLIGHT Biotinylated' detection, streptavidin HRP.

The target in a further experiment is recombinant human LTbR (human, UniProt P36941 31-227, limits assumed). In words: biolayer interferometry (Octet), human LTbR.

recombinant human CD47, sequence (Q08722 19-139 limits assumed): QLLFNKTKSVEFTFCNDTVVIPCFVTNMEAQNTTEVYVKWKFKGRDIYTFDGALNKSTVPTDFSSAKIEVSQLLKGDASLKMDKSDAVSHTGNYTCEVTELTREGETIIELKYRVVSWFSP
T1 sequence (Q61735 19-140): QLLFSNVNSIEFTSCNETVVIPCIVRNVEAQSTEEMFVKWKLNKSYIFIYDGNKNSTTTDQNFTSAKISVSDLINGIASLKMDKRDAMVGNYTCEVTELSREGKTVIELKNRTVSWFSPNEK
human LTBR-His, sequence (P36941 31-227 limits assumed): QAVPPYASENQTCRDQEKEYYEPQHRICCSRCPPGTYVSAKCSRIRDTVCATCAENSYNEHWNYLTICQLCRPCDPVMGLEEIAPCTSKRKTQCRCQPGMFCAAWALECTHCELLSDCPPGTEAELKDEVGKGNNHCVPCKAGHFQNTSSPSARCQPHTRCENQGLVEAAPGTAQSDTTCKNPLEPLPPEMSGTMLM
recombinant human LTbR, sequence (P36941 31-227 limits assumed): as above

B1: human CD172a(SIRPα)-Fc-LIGHT chimeric protein (Fc fusion)
chain: [sequence of about 350 residues omitted]SKYGPPCPPCPAPEFLGGPSVFLFPPKPKDQLMISRTPEVTCVVVDVSQEDPEVQFNWYVDGVEVHNAKTKPREEQFNSTYRVVSVLTVLHQDWLSGKEYKCKVSSKGLPSSIEKTISNATGQPREPQVYTLPPSQEEMTKNQVSLTCLVKGFYPSDIAVEWESNGQPENNYKTTPPVLDSDGSFFLYSRLTVDKSRWQEGNVFSCSVLHEALHNHYTQKSLSLSLGKIEGRMDLQLHWRLGEMVTRLPDGPAGSWEQLIQERRSHEVNPAAHLTGANSSLTGSGGPLLWETQLGLAFLRGLSYHDGALVVTKAGYYYIYSKVQLGGVGCPLGLASTITHGLYKRTPRYPEELELLVSQQSPCGRATSSSRVWWDSSFLGGVVHLEAGEKVVVRVLDERLVRLRDGTRSYFGAFMV
notes: also called hCD172a(SIRPα)-Fc-LIGHT; Sirp1a-Fc-LIGHT
With B1, the EC50 (read off the curve) – broadly, the concentration needed to bring the measured effect to its halfway point – with CD47-His is approximately 4 nM. The binding result in the experiment with recombinant human CD47, in the experiment with human LTBR-His and with recombinant human LTbR was “binds” each time.
